Test results published in PubChem BioAssay AID2528 (National Center for Advancing Translational Sciences (NCATS), 2010).
Several values for one entry are separate records, joined by “and”; a condition that tells them apart may be missing. Equal values may be shown once. Screen size: about 350,000 compounds; about 700 (0.2%) were called active. Calls follow the shape of the dose curve; as a rule, active = well fitted inhibition curve with a large enough effect; inconclusive = small, poorly fitted or top-dose-only effect; inactive = flat fitted curve, though single readings scatter. Only a part is listed here, and it is no random draw.

The compounds below were run against RecQ-like DNA helicase BLM (Homo sapiens) (UniProt P54132) (assay: qHTS Assay for Inhibitors of Bloom's syndrome helicase (BLM)). Conditions: recombinant BLM DNA unwinding, fluorescence dequenching; series mostly up to 56.1 µM; activity change, negative = inhibition: at the top concentration.
Sequence of UniProt P54132 (P54132 whole entry, looked up): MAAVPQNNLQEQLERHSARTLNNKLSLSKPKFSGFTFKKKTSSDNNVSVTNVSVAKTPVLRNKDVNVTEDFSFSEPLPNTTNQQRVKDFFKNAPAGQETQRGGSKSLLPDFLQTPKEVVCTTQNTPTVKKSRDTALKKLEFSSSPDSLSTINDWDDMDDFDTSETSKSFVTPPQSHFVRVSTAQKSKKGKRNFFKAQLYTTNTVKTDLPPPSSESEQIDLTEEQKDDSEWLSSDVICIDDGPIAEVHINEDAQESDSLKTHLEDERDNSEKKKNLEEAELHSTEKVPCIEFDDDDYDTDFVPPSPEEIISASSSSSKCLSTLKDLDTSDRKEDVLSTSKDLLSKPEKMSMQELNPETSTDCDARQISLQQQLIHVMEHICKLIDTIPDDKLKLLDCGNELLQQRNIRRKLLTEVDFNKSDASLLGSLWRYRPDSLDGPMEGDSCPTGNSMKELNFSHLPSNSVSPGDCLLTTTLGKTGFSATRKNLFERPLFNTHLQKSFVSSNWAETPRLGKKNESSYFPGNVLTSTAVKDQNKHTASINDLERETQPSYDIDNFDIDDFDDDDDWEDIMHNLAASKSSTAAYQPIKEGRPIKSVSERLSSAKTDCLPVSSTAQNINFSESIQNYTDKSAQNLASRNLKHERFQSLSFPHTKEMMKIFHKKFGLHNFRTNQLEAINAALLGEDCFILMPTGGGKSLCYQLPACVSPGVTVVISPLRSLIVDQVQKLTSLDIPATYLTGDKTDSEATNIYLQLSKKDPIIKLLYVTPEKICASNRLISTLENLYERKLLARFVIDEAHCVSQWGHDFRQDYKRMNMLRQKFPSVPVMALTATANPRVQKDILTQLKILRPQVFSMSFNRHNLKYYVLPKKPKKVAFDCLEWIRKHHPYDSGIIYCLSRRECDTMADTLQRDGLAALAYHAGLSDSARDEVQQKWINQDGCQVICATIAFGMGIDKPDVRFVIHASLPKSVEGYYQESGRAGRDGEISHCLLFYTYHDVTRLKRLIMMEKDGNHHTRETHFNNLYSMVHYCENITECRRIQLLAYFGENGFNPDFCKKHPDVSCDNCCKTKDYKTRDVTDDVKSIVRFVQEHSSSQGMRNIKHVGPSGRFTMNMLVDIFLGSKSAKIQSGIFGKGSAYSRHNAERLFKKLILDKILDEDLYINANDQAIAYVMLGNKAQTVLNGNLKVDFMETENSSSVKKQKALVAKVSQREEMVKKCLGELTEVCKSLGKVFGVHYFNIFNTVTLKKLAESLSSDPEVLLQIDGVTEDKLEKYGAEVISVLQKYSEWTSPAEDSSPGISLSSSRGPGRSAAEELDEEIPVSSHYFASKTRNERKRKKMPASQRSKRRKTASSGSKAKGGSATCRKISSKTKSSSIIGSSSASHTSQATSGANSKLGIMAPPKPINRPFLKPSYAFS
Also: nearly all actives have a fitted effect of over 35% in size.
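For activity change, negative = inhibition in this document: plate controls were vehicle for no effect and no enzyme for full effect.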
Potency is read from the fitted curve at half-maximal effect.

Row | Structure (SMILES) | Potency | activity change, negative = inhibition
1 | CN(C(=O)COC(=O)c1cc(-c2ccco2)nc2ccccc12)C1CCS(=O)(=O)C1 (centres undefined) | active: 3.16 µM | –
2 | OCc1cc([C@@H](O)CNCCCCCCOCCCCc2ccccc2)ccc1O | – | inactive: -1.9%
3 | CN(C(=O)CCCOc1ccc2[nH]c(=O)ccc2c1)C1CCCCC1 | – | inactive: 1.35%
4 | CCc1c(C)[nH]c2c1C(=O)[C@H](CN1CCOCC1)CC2 | – | inactive: 1.03% [at 21.4 µM]
5 | COc1ccc(NS(=O)(=O)c2ccc(O)c(NC(=O)c3cc4c(C)nn(-c5ccc(F)cc5)c4s3)c2)cc1 | active: 28.2 µM | –
6 | O=C(c1cc2c(s1)CCC2)N1CCN(c2ccccc2)CC1 | active: 12.6 µM | –
7 | CC1(C)SC2C(NC(=O)C(N)c3ccccc3)C(=O)N2C1C(=O)O (centres undefined) | – | inactive: -13.9%
8 | N[C@@H](COP(=O)(O)O)C(=O)O | – | inactive: 2.72%
9 | CCCCc1oc2ccccc2c1C(=O)c1cc(I)c(OCCN(CC)CC)c(I)c1 | inactive | –
10 | CN(Cc1cnc2nc(N)nc(N)c2n1)c1ccc(C(=O)NC(CCC(=O)O)C(=O)O)cc1 (centres undefined) | – | inactive: 3.97%
11 | C[C@@]12C(=O)OC(=O)[C@@]1(C)[C@@H]1CC[C@@H]2O1 | – | inactive: -8.56%
12 | NC(N)=NC(N)=Nc1ccccc1 | inactive | –
13 | CC(=O)c1ccc(NC(=O)CC2Nc3cccc4cccc(c34)NC2=O)cc1 (centres undefined) | – | inactive: -5.01%
14 | NCCc1ccc(O)c(O)c1 | inactive | –
15 | NC(=O)c1ccccc1 | – | inactive: -3.44%
16 | CCCN(CC1CC1)c1nc(C)nc(Nc2c(Cl)cc(Cl)cc2Cl)c1Cl | – | inactive: -1.94%
17 | C[C@@H]1CCN=C(N)S1 | – | inactive: -8.13%
18 | NS(=O)(=O)c1cc2c(cc1Cl)NC(C1C[C@H]3C=C[C@@H]1C3)NS2(=O)=O (some centres undefined) | – | inactive: -8.63%
19 | CC(C)(C)NC(=O)[C@H]1CC[C@H]2[C@@H]3CC[C@H]4NC(=O)C=C[C@]4(C)[C@H]3CC[C@]12C | – | inactive: -11.3%
20 | O=C(N/N=C/c1ccc(O)c(O)c1)N/N=C/c1ccc(O)c(O)c1 | active: 7.94 µM | –

Row | Structure (SMILES) | Potency | activity change, negative = inhibition
21 | O=C(O)C[C@@H]1C(=O)O[C@@H]2C(COC(=O)c3cc(O)c(O)c(O)c3)O[C@@H](OC(=O)c3cc(O)c(O)c(O)c3)[C@@H](OC(=O)c3cc(O)c(O)c4c3[C@H]1[C@H](O)C(=O)O4)[C@H]2OC(=O)c1cc(O)c(O)c(O)c1 (some centres undefined) | active: 0.1 µM | –
22 | Cc1c(C(=O)N/N=C/c2ccc(-c3ccccc3[N+](=O)[O-])o2)sc(N)c1C#N | active: 7.94 µM | –
23 | C=CCn1c(NS(=O)(=O)c2ccccc2)c(S(=O)(=O)c2ccc(C)cc2)c2nc3ccccc3nc21 | active: 4.47 µM | –
24 | COC(=O)[C@H]1[C@H]2C[C@H]3c4[nH]c5ccccc5c4CCN3C[C@H]2CC[C@@H]1O | – | inactive: 0.319%
25 | CC(C)C(=O)c1c(C(C)C)nn2ccccc12 | – | inactive: -3.88%
26 | Cn1nc(-c2ccc(C(=O)Nc3ccc(F)cc3)cc2)c2ccccc2c1=O | – | inactive: -28.9%
27 | CC[C@]1(O)C[C@@H]2CN(CCc3c([nH]c4ccccc34)[C@@](C(=O)OC)(c3cc4c(cc3OC)N(C)[C@H]3[C@@](O)(C(=O)OC)[C@H](OC(C)=O)[C@]5(CC)C=CCN6CC[C@]43[C@@H]65)C2)C1 | – | inactive: -7.91%
28 | Oc1ccc(Nc2nc(NCC3CCCO3)c3ccccc3n2)cc1 (centres undefined) | active: 15.8 µM | –
29 | CCCC(C(=O)OCCN(CC)CC)(c1ccccc1)c1ccccc1 | inactive | –
30 | Clc1ccccc1C(c1ccccc1)(c1ccccc1)n1ccnc1 | inactive | –
31 | NC(=O)NO | – | inactive: 4.42%
32 | O=C(CSc1ccccn1)Nc1ccc2c(c1)C(=O)c1ccccc1C2=O | active: 25.1 µM | –
33 | COc1cc(CC2COC(c3ccc(O)c(OC)c3)C2COC(C)=O)ccc1O (centres undefined) | active: 25.1 µM | –
34 | CCN1/C(=C/C(C)=O)Sc2ccc(OC)cc21 | – | inactive: 0.258%
35 | Oc1c(Cl)cc(Cl)cc1Sc1cc(Cl)cc(Cl)c1O | – | inactive: -27.7%
36 | CN(C)c1ccc(/C=C2\C(=O)Nc3ccccc32)cc1 | – | inactive: -7.6%
37 | CC(=O)OC(C)C[N+](C)(C)C (centres undefined) | inactive | –
38 | COc1ccc(C(=O)Nc2nc3c(s2)Cc2cc(OC)ccc2-3)cc1 | – | inactive: -16%
39 | CC(C)C[C@H](NC(=O)[C@@H]1O[C@H]1C(=O)O)C(=O)NCCCCN=C(N)N | – | inactive: -0.972%
40 | O=C(OC1Cc2c(O)cc(O)cc2OC1c1cc(O)c(O)c(O)c1-c1c(C2Oc3cc(O)cc(O)c3CC2OC(=O)c2cc(O)c(O)c(O)c2)cc(O)c(O)c1O)c1cc(O)c(O)c(O)c1 (centres undefined) | active: 7.94 µM | –

Row | Structure (SMILES) | Potency | activity change, negative = inhibition
41 | CCc1ccc(S(=O)(=O)/N=C2\C=C(Nc3ccc(C(=O)O)cc3)C(=O)c3ccccc32)cc1 | active: 25.1 µM | –
42 | CCN1CCC[C@H]1CNC(=O)c1cc(S(N)(=O)=O)ccc1OC | inactive | –
43 | COc1ccc(C(=O)Nc2nnc(SCc3cc(=O)c4cc(C)cc(C)c4[nH]3)s2)cc1 | active: 20 µM | –
44 | O=C1C(Cl)=C(NCCN2CCOCC2)C(=O)c2ncccc21 | active: 3.55 µM and active: 5.01 µM | –
45 | O=c1c(-c2cc(F)cc(F)c2)nc2cnc(N3CCNCC3)nc2n1Cc1ccc(F)cc1 | active: 35.5 µM | –
46 | CC(C)N(CCC(=O)c1ccc2ccccc2c1)Cc1ccccc1 | – | inactive: -7.9%
47 | NS(=O)(=O)c1cc2c(cc1Cl)N[C@@H]([C@@H]1C[C@@H]3C=C[C@H]1C3)NS2(=O)=O | – | inactive: -5.76%
48 | COc1cc(Cl)c(C)cc1NC(=O)CSc1ncc(S(=O)(=O)c2ccc(C(C)(C)C)cc2)c(=O)[nH]1 | active: 15.8 µM | –
49 | CC(C)(Oc1ccc(C2CC2(Cl)Cl)cc1)C(=O)O (centres undefined) | – | inactive: -3.43%
50 | COc1c2c(nc3ccccc13)O[C@H]([C@@](C)(O)CO)C2 | – | inactive: 5.03% [at 21.4 µM]
51 | CCOC(=O)C1=C(C)NC(C)=C(C(=O)OC)C1c1cccc([N+](=O)[O-])c1 (centres undefined) | inactive | –
52 | COCCOC(=O)C1=C(C)NC(C)=C(C(=O)OC(C)C)[C@@H]1c1cccc([N+](=O)[O-])c1 | – | inactive: -8.84%
53 | Cc1nc2c(OCc3ccccc3)cccn2c1CC#N | – | inactive: 2.86%
54 | O=C(c1ccc(OCCN2CCCCC2)cc1)c1c(-c2ccc(O)cc2)sc2cc(O)ccc12 | inactive | –
55 | Cc1ccc(N=C2NC(=O)/C(=C/C=C/c3ccco3)S2)cc1C | active: 11.2 µM | –
56 | CC(CN1c2ccccc2Sc2ccccc21)N(C)C (centres undefined) | inactive | –
57 | O=C(Nc1ccc2nc(-c3ccco3)c(-c3ccco3)nc2c1)N1CCCCCC1 | active: 5.62 µM | –
58 | N[C@H](Cc1cc(I)c(Oc2ccc(O)c(I)c2)c(I)c1)C(=O)O | – | inactive: -0.488% [at 21.4 µM]
59 | COc1cc2c(-c3ccc(O)cc3)nc3c(c(C)nn3-c3ccccc3)c2cc1OC | active: 14.1 µM | –
